Residue numbers refer to the chain shown, from its start. Entries after “also recorded” stand apart in the source; their conditions may differ.
B1: VH5/VK3: humanized anti-EphA5 IgG1/kappa antibody; VH SEQ ID NO:6, VL SEQ ID NO:11; heavy chain SEQ ID NO:39, light chain SEQ ID NO:40 (antibody)
heavy: EVQLVESGGGLVQPGGSLKLSCAASGFTFSTFGIHWVRQAPGKGLEWVAYISGASTTIYYADSVKGRFTISRDNSKNTLYLQMNSLRAEDTAVYYCARYGTSFPYGLDYWGQGTLVTVSSASTKGPSVFPLAPSSKSTSGGTAALGCLVKDYFPEPVTVSWNSGALTSGVHTFPAVLQSSGLYSLSSVVTVPSSSLGTQTYICNVNHKPSNTKVDKRV[letters of human IgG1 Fc left out]
light: DIVMTQSPDSLAVSLGERATINCKASQSVDYDGDSYMNWYQQKPGKAPKLLIYGASNLESGIPDRFSGSGSGTDFTLTISRLEPEDAAVYYCQQSNEDPFTFGQGTKLEIKRTVAAPSVFIFPPSDEQLKSGTASVVCLLNNFYPREAKVQWKVDNALQSGNSQESVTEQDSKDSTYSLSSTLTLSKADYEKHKVYACEVTHQGLSSPVTKSFNRGEC
B2: VH4/VK3: humanized anti-EphA5 IgG1/kappa antibody; VH SEQ ID NO:5, VL SEQ ID NO:11; heavy chain SEQ ID NO:38, light chain SEQ ID NO:40 (antibody)
heavy: B1 heavy with S63T
light: B1 light

Legend:
[1] = system: EphA5+ cells (H460 human lung cancer cells); test: Antibody internalization after binding to cell-surface EPHA5, EphA5+ cells; type: cell-based; settings: various antibody concentrations
[2] = system: Membrane Proteome Array, 6,000 human membrane protein clones; test: Membrane Proteome Array (MPA) specificity screen; type: binding; settings: antibody at 20 μg/ml, HEK-293T
Protocol: Membrane Proteome Array: Membrane Proteome Array (MPA) screening was conducted at Integral Molecular. The MPA is a protein library composed of 6,000 human membrane protein clones, each overexpressed in live cells from expression plasmids. Each clone was individually transfected in separate wells of a 384-well plate followed by a 36 h incubation (Tucker et al., 2018). Cells expressing each individual MPA protein clone were arrayed in duplicate in a matrix format for high-throughput screening. Before screening on the MPA, the test antibody concentration for screening was determined on cells expressing positive (membrane-tethered Protein A) and negative (mock-transfected) binding controls, followed by detection by flow cytometry using a fluorescently-labeled secondary antibody. Each test antibody was added to the MPA at the predetermined concentration, and binding across the protein library was measured on an Intellicyt iQue using a fluorescently-labeled secondary antibody. Each array plate contains both positive (Fc-binding) and negative (empty vector) controls to ensure plate-to-plate reproducibility. […]
To identify antibody binding targets, ~6,000 different membrane proteins were each expressed in individual wells of HEK-293T or QT6 cells arrayed in 384 well plates. […] Non-specific fluorescence was determined to be any value below 3 standard deviations of the mean background value.

[3] = Thermal ramp stability (UNcle, Sypro Orange fluorescence and static light scattering); type: physicochemical; settings: for ranking by Tagg (SLS profiles): among the chimeric and six lead humanized variants
From the text: Thermal ramp stability experiments (Tm and Tagg) are well established methods for ranking proteins and formulations for stability. A protein's denaturation profile provides information about its thermal stability and represents a structural ‘fingerprint’ for assessing structural and formulation buffer modifications. A widely used measure of the thermal structural stability of a protein is the temperature at which it unfolds from the native state to a denatured state. For many proteins, this unfolding process occurs over a narrow temperature range and the mid-point of this transition is termed ‘melting temperature’ or ‘Tm’. To determine the melting temperature of a protein, UNcle measures the fluorescence of Sypro Orange (which binds to exposed hydrophobic regions of proteins) as the protein undergoes conformational changes.
Samples for each variant were formulated in PBS and Sypro Orange at a final concentration of 1 mg/mL. 9 μL of each sample mixture was loaded in duplicate into UNi microcuvettes. Samples were subjected to a thermal ramp from 25-95° C., with a ramp rate of 0.3° C./minute and excitation at 473 nm. Full emission spectra were collected from 250-720 nm, and the area under the curve between 510-680 nm was used to calculate the inflection points of the transition curves (Tonset and Tm). Monitoring of static light scattering (SLS) at 473 nm allowed the detection of protein aggregation, and Tagg (onset of aggregation) was calculated from the resulting SLS profiles. Thermal stability values determined lie in a broad range from 57.9 to 69.6° C. (Tm1), 55.1 to 65.2° C. (Tonset) and 65.6 to 70.2° C. (Tagg) with the humanized leads generally showing improved profiles when compared to the chimeric antibody. […] All humanized antibodies appear to have a higher Tm1, Tonset and Tagg compared to the chimeric antibody.

[4] = system: EphA5- cells; test: Antibody internalization, EphA5- cells; type: cell-based
[5] = target: T1, recombinant human EphA5 (rhEphA5) antigen (Homo sapiens, UniProt P54756); test: Biacore multi-cycle kinetic analysis of purified antibodies, 1:1 model; type: binding
T1 construct: purchased R and D systems 3036-A5
T1 sequence (P54756 25-573 limits assumed): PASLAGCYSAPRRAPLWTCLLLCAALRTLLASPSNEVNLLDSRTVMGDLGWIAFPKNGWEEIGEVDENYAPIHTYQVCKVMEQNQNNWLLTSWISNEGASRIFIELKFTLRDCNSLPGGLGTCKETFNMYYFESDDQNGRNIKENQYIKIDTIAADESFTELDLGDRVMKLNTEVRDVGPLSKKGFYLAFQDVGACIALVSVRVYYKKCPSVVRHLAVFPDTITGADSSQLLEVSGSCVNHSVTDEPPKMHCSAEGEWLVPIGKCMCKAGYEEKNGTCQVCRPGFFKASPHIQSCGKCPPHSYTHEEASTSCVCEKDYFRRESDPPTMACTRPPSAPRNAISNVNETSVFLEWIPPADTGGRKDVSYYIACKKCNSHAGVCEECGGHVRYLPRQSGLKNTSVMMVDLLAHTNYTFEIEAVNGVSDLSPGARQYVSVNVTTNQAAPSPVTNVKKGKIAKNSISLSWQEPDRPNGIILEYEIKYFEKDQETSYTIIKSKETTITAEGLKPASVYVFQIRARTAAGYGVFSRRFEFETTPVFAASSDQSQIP
Protocol: In order to assess the binding of the six lead humanized variants to rhEphA5 antigen, multi-cycle kinetic analysis (FIG. 68) was performed on purified material. Kinetic experiments were performed at 25° C. on a Biacore T200 running Biacore T200 Control software V2.0.1 and Evaluation software V3.0 (GE Healthcare, Uppsala, Sweden).
HBS-P+ (GE Healthcare, Uppsala, Sweden), supplemented with 1% BSA w/v (Sigma, Dorset, UK) was used as running buffer as well as for ligand and analyte dilutions. Purified lead antibodies were diluted to 0.5 μg/mL in running buffer and at the start of each cycle, loaded onto Fc2, Fc3 and Fc4 of an anti-human IgG CM5 sensor chip (GE Healthcare, Little Chalfont, UK). Antibodies were captured at a flow rate of 10 μl/min to give an immobilization level (RL) of ~50 RU. The surface was then allowed to stabilize.
Multi-cycle kinetic data was obtained using recombinant EphA5 as the analytes injected at a flow rate of 30 μl/min to minimize any potential mass transfer effects. A five point, three-fold dilution range from 1.11 nM to 270 nM of EphA5 was prepared in running buffer. For each concentration, the association phases were monitored for 210 seconds and the dissociation phase was measured for 900 seconds. […]
A summary of the kinetic constants determined from the 1:1 model fitted curves is shown in FIG. 19 with fitted curves shown in FIG. 20.

[6] = system: H460, A549 and H1299 human lung carcinoma cells; test: Incucyte Fabfluor-pH Red antibody internalization, real-time live cell imaging; type: cell-based; settings: pH-sensitive Fabfluor dye, various concentrations
Protocol: In vitro studies were conducted in which three different Eph5A-expressing target cell lines were incubated with various concentrations of VH5Vk3 or VH4Vk3 antibodies after which internalization of bound antibody was calculated. Antibody internalization was performed with the Incucyte® Human Fabfluor-pH Red Antibody Labeling Dye and the naked VH4Vk3 (FIG. 66) and VH5Vk3 (FIG. 67) human monoclonal antibodies in the following cell lines: H460 human lung carcinoma, A549 human lung carcinoma and H1299 human lung carcinoma. These cell lines express variable levels of EphA5 on the cell surface: H460 (+++)>A549 (++)=H1299 (++). Internalization was visualized and quantified using real-time live cell imaging analysis. The Fabfluor-pH Red Antibody Labeling Dye is sensitive to pH and only emits fluorescence once inside lysosomes in low pH conditions.

Molecule | internalization into EphA5+ cells [1] | Identified membrane protein targets: Target gene (HGNC) ([2]; listed as EPHA5 H5K3) | ranking by Tagg (SLS profiles) [3] | Average Tonset (° C.) ([3]; average of duplicates) | Average Tm1 (° C.) ([3]; average of duplicates, 1 mg/mL in PBS) | Average Tagg 473 (° C.) ([3]; average of duplicates, SLS at 473 nm) | Tonset (° C.) ([3]; single replicate) | Tm1 (° C.) ([3]; single replicate, 1 mg/mL in PBS, ramp 25-95° C.) | Tagg 473 (° C.) ([3]; single replicate, SLS at 473 nm) | internalization into EphA5- cells [4] | kd ([5]; Biacore T200, 25° C., IgG captured on anti-human IgG chip) | RMAX ([5]; fitted 1:1 model) | internalization and lysosomal trafficking of the naked antibody [6] | Identified membrane protein targets: Target gene (HGNC) [2]
B1 | dose dependent; also recorded: internalized into EphA5+ cells | EPHA5; also recorded: CPT1B | highest Tagg values | 63.6 °C | 69.0 °C | 70.2 °C | 63.59 °C | 68.99 °C | 70.17 °C | but not EphA5-cells | 0.00135 s⁻¹ | 35.3 | receptor-mediated internalization and trafficking | 
B2 |  |  | highest Tagg values |  |  |  |  |  |  |  |  |  | receptor-mediated internalization and trafficking | EPHA5
